Source: the RNAGym collection of RNA variant scans (doi:10.1073/pnas.2313332121)
Variants at the background level are over-represented here.

B1: TPR 5TU (parent)
chain: GGAUCUUCUCGAUCUAACAAAAAAGACAAAUCUGCCACAAAGCUUGAGAGCAUCUUCGGAUGCAGAGGCGGCAGCCUUCGGUGGCGCGAUAGCGCCAACGUUCUCAACUAUGACACGCAAAACGCGUGCUCCGUUGAAUGGAGUUUAUCAUG

Variants of: B1
Test: polymerase ribozyme fitness, log enrichment relative to wild type (log ratio); higher = more active; in vitro selection for triplet polymerase activity
Method in brief: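 One round of in vitro selection, in triplicate, was applied to PCR-built, transcribed mutant libraries of each subunit of a heterodimeric triplet polymerase ribozyme. The steps were annealing with a biotinylated primer, partner subunit and triplets, incubation frozen at −7 °C, gel excision of extended constructs, streptavidin-bead capture and RT-PCR. Fitness is the logarithm, base 2, of genotype enrichment over wild-type enrichment from inverse-variance-weighted replicate averages of Illumina-sequenced inputs and outputs, keeping genotypes with ≥10 input reads and ≥1 read per output.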

Point of comparison: GGAUCUUCUCGAUCUAACAAAAAAGACAAAUCUGUCACAAAGCUUGCGAGCAUCUUCGGAUGCAGAGGCGGCAGCCUUCUGUGGCGUGAUAGCGCCAACGUUCUCAACUAUGACACGCAAAACGCGUGCUCCGUUGAAUGGAGUUUAUCAUG, “polymerase ribozyme fitness (log ratio)” value -3.9. Against it:
- GGAUCUUCUCGAUCUAACAAAAAAGACAAAUCUGGCACAAAGCUUGAGAGCAUCUUCGGAUGCAGAGUCGGCAGCCUUCGGUGGCGCGAUAGCGCCAACGUUCUCAACUAUGACACGCAAAACGCGUGCUCCGUUGAAUGGAGUUUACCAUG — lower, ≤ -4.2
- GGAUCUUCUCGAUCUAACAAAAAAGACAAAUCUGGCACAAAGCUUGAGAGCAUCUUCGGAUGCAGAGGCCGCAGCCUCCGGUGGCGCGAUAGCGCCAACGUGCUCAACUAUGACACGCAAAACGAGUGCUCCGUUGAUUGGAGUUUAUCAUG — lower, ≤ -4.2
- GGAUCUUCUCGAUCUAACAAAAAAGACAAAUCUGGCACAAAGCUUGAGAGCAUCUUCGGAUGCAGAGGCGGCAGCCUUCGGUUGCGCGAUAGCGCCAACGUUCUCAACUAUGACACGCAAAACGCGUGCUCCGUUGAAUGGAGUUUAUCGUG — lower, ≤ -4.2
- GGAUCUUCUCGAUCUAACAAAAAAGACAAAUCUGGCACAAAGCUUGAGAGCAUCUUCGGAUGCAGAGGCGGCAGCCUUCGGUGACGCGAUAGCGCCAACGUUCGCAACGAUGACACGCAAAACGCGUGCUCCGUUGAAUUGAGUUUAUCAUG — lower, ≤ -4.2
- GGAUCUUCUCGAUCUAACAAAAAAGACAAAUCUGGCACAAAGCUUGAGAGCAUCUUCGGAUGCAGAGGCGGCAGCCUUCGGUGGCUCGAUAGCGCCAACGUUCUCAACAAUGUUACGCAAAUCGCGUGCUCCGUUGAAUGGAGUUUAUCAUG — lower, ≤ -4.2
- GGAUCUUCUCGAUCUAACAAAAAAGACAAAUCUGGCACAAAGCUUGAGAGCAUCUUCGGAUGCAGAGGCGGCAGCCUUCGGUGGCGCAAUAGCGCCAACGUUCUGAACUAUGACACGCAAAACGCGUGCUCCGUUGAGUGGAGUUUAUCAUG — lower, ≤ -4.2
- GGAUCUUCUCGAUCUAACAAAAAAGACAAAUCUGGCACAAAGCUUGAGAGCAUCUUCGGAUGCAGAGGCGGCAGCCUUCGGUGGCGCGAUAUCGCUAACGUUCUCAACUAUGACACGCAAAACGCGCGCUCCGUUGAAGGGAGUUUACCGUG — lower, ≤ -4.2
- GGAUCUUCUCGAUCUAACAAAAAAGACAAAUCUGGCACAAAGCUUGAGAGCAUCAUCGGAUGCAGAGGCGGCAGCCUUCGGUGGUGCGAUAGCGCCAACGUUCUCAACUAUGACCCGCAAAACGCGUGCUCCGUUGAAUGCAGUUUAUCAUG — lower, ≤ -4.2
- GGAUCUUCUCGAUCUAACAAAAAAGACAAAUCUGGCACAAAGCUUGAGAGCAUCAUCGGAUGCAGAGGCGGCAGCCUUCGGUGGCGCGAUAGCGACAACGUGCUCAACUAUGACACGCAAAACGCGUGCUCCGUUGAAUGGAGUUUAUCAUG — lower, ≤ -4.2
- GGAUCUUCUCGAUCUAACAAAAAAGACAAAUCUGGCACAAAGCUUGAGAGCAUCAUCGGAUGCAGAGGCGGCAGCCUUCGGUGGCACGAUAGCGCCAACGUUCUCAACUAUGACACGCAAAACGCGUGCUCCGUUGAAUGGAGUUUAUCAUG — lower, ≤ -4.2
- GGAUCUUCUCGAUCUAACAAAAAAGACAAAUCUGGCACAAAGCUUGAGAGCAUCAUCGGAUGCAGAGGCGGCAGCCUUCGGUGGCGCGAUAGCACCAACGGUCUCAACUAUGACACGCAAAACGCGUGCUUCGUUGAAUGGAGUUUAUCAUG — lower, ≤ -4.2
- GGAUCUUCUCGAUCUAACAAAAAAGACAAAUCUGGCACAAAGCUUGAGAGCAUCGUCGGAUGCAGAGGCGGCAGCCUUCGGUGGGGCGAUAGCGCCAACGUUCUCAACUAUGACACGCAAAACGCGUGCUCCGUUGAAUGGAGAUUAUCAUG — lower, ≤ -4.2
- GGAUCUUCUCGAUCUAACAAAAAAGACAAAUCUGGCACAAAGCUUGAGAGCAUCUUCGGAUGCAGAGGCGGCAGCCCUCCGUGGCGCGAUAGCGUCAACGUUCUCAACUAUGACACGUAAAACGCGUGCUCCGUUGAAUGGAGUUCAUCAUG — lower, ≤ -4.2
- GGAUCUUCUCGAUCUAACAAAAAAGACAAAUCUGUCUCAAGUCUUGAGAGCAUCUUCGGAUGCAGAGGCGGCAGCUUUCGGUGCCGCGAUAGCGCCAACGUUCUCUACUAUGACACGCAAAACGCGUGCUCCGUUGAAUGGAGUUUAUCAUG — lower, ≤ -4.2
- GGAUCUUCUCGAUCUAACAAAAAAGACAAAUCUGUCUCAAAGCUUGAGAGCAUCUUCGGAUGCAGAGGCGGCAGCCUUCGGUGGCGCGAUACCGCCAACGUUCUCUACUAUGACAGGCAAAACGCGUGCUCCGUUGAAUGUAGUUUAUCAUG — lower, ≤ -4.2
- GGAUCUUCUCGAUCUAACAAAAAAGACAAAUCUGUCACCAAGCUUGAGAGCAUCUUAGGAUGCAGUGGCGGCAGCCUUCGGUGGCGCGAUAGCGCCAACGUUCUCAACUAUGACACGCAAAAAGCGUGCUCCGUUGAAUGGAUUUUAUCAUG — lower, ≤ -4.2
- GGAUCUUCUCGAUCUAACAAAAAAGACAAAUCUGUCACAAUGGUUGAGAGCAUCUUCGGAUGCAGAGGCGGCAGCCUUCGGUGGCGCGAUAGCGCCAACGUUCUCAAUUAUGACACGCAAAACGCGUGCUCCGUAGAAUCGAGUUUAUCAUG — lower, ≤ -4.2
- GGAUCUUCUCGAUCUAACAAAAAAGACAAAUCUGUCACAAAGCUUGCGAGCAUCUUCGGAUGCAGAGGCGGCAGCCUUCGGUUGCGCGAUAGCGCCAACGUUCUCAACUAUGACACGCAUAACGCGUGCUCCGUUGCAUGGAGUUUAUCAUG — lower, ≤ -4.2
